For 25 molecules, Potency results are on record in PubChem BioAssay AID360 (National Center for Advancing Translational Sciences (NCATS), 2006).

SMILES strings stand for the structures. The whole screen tested about 48,000 compounds, of which about 550 (1.1%) were called active. Inconclusive results (about 4%) are left out. Rule as the data show it: active = potency below about 15 µM; inconclusive = mostly about 16 µM to 33 µM; inactive = weaker than that. This is one part of the list. Bounds are passed on as bounds.
Potency is read from the fitted curve at half-maximal effect.

Sequence of UniProt P04062 (P04062 whole entry, looked up): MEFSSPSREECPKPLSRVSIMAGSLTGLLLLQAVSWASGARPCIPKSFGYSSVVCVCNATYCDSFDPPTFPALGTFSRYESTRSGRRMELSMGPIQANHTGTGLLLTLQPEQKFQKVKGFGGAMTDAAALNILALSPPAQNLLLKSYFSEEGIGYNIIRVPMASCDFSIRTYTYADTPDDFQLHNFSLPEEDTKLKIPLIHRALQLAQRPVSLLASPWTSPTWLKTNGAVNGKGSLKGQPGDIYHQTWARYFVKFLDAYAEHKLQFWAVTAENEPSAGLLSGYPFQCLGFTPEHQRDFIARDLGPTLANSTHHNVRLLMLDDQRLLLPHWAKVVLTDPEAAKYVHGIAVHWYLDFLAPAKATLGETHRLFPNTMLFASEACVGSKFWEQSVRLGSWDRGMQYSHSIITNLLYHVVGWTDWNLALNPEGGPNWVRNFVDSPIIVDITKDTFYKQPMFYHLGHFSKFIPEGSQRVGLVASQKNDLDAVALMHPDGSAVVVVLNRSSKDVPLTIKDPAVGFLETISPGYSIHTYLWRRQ

The target in the test is Lysosomal acid glucosylceramidase (Homo sapiens) (UniProt P04062). Put plainly: Glucocerebrosidase.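 Also: the screen sought inhibitors.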 Conditions: purified enzyme, resorufin glucoside fluorescence (screen aimed at inhibitors), 20 min. A digest of the protocol:
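Wild-type enzyme at 0.2 nM final in 50mM citric acid/KH2PO4, 10mM sodium taurocholate, 0.01% tween-20, pH 5.9, with resorufin beta-D-glucopyranoside at 30 uM final. Compounds titrated, 20 min at RT, red fluorescence read; AC50 from titration.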
Regarding `COc1cccc(Oc2c(C)oc3cc(OC(=O)N(C)C)ccc3c2=O)c1`, the Potency is inactive: > 76.9 µM. The result for `O=C(O)C(O)(c1ccccc1)C1CCCC1` (stereo not given) reads inactive: > 76.9 µM. The result for `CC(=NCCO)c1c(O)n(C2CCCCC2)c(=O)[nH]c1=O` reads inactive: > 76.9 µM; that for `CCCCn1c(C)c(C(=O)O)c2cc(OC)ccc21`, inactive: > 76.9 µM. The same measure for `Cc1ccc2cccc(OC(=O)N3CCCC3)c2n1`: inactive: > 76.9 µM. For `CCOC(=O)N(C)c1ccc(C(O)(C(=O)OCC)C(F)(F)F)cc1` (stereo not given), the Potency is inactive: > 76.9 µM. The same measure for `N[C@@H](Cc1c[nH]c2ccccc12)c1nnc(SCc2ccc(Cl)cc2)o1`: “inactive”. The same measure for `CCOC(=O)CCN=Cc1c(O)n(-c2ccc(Br)cc2)c(=O)[nH]c1=O`: inactive: > 76.9 µM; for `COCCCn1c(N)c(C(=O)OCCOC)c2nc3ccccc3nc21`: inactive: > 76.9 µM; for `O=C(Cn1ncc2c3ccccc3n(Cc3ccccc3)c2c1=O)N1CCC2(CC1)OCCO2`: inactive: > 76.9 µM. The same measure for `COc1ccc(CCC(=O)N2CCC3(CC2)OCCO3)cc1`: inactive: > 76.9 µM; for `ClC1=CCC2CN(CCN3CCCCC3)CC2C1` (stereo not given): inactive: > 76.9 µM; for `O=C1N(CN2CCOCC2)c2ccccc2C1(O)c1c[nH]c2ccccc12` (stereo not given): inactive: > 76.9 µM. Take `CC1(C)C2CC=C(CN3CCOCC3)C1C2` (stereo not given): the Potency was inactive: > 76.9 µM. The same measure for `CN1C(=O)N(C)C(=O)C2(Cc3c(nc4ccccn4c3=O)N3CCC(Cc4ccccc4)CC32)C1=O` (stereo not given): active: 13.3 µM; for `CCCCn1c(O)c(C=Nc2c(C)n(C)n(-c3ccccc3)c2=O)c(=O)[nH]c1=O`: inactive: > 76.9 µM; for `CCc1nnc(NC(=O)CCc2nc(C3=CCN(C)CC3)no2)s1`: inactive: > 76.9 µM. As to `Cc1ccc(C)c(NC2=NCCCS2)c1`, the Potency is inactive: > 76.9 µM. Consider `O=P(C(c1c[nH]c2ccccc12)N1CCOCC1)(N1CCOCC1)N1CCOCC1` (stereo not given), for which the Potency is inactive: > 76.9 µM. The same measure for `Cc1ccc2c(c1)N(CCC(=O)N1CCC3(CC1)OCCO3)C(=O)CO2`: inactive: > 76.9 µM.

In the case of `Cc1[nH]c2c(C(F)(F)F)cccc2c1CCN`, the Potency is inactive: > 76.9 µM.

Take `OCC1(CO)COC(c2cccnc2)N1` (stereo not given): the Potency is inactive: > 76.9 µM. The same measure for `CCN(CC)CCCN=C(C)c1c(O)n(C2CCCCC2)c(=O)[nH]c1=O`: inactive: > 76.9 µM; for `CC(=O)N1CCN(c2ccc(N=Cc3c(O)n(-c4ccc(Cl)cc4)c(=O)[nH]c3=O)cc2)CC1`: inactive: > 76.9 µM; for `CCc1nc2ccccc2c(=O)n1-c1cccc(OC)c1`: inactive: > 76.9 µM.
